The antibiotic and cytotoxicity screens of Wong et al. (2023)
This is one part of the list.

Columns and labels:
HSkMC = human skeletal muscle cells; assay: cytotoxicity call (relative viability < 0.9); details: 10 µM
HepG2 = assay: cytotoxicity call (relative viability < 0.9); details: 10 µM
S. aureus RN4220 = assay: growth inhibition call (relative growth <= 0.2); details: 50 µM

Structure (SMILES)	cytotoxicity call (HSkMC)	cytotoxicity call (HepG2)	growth inhibition call (S. aureus RN4220)
C[C@@H]1CN([C@H](C)CO)C(=O)c2cc(NC(=O)Nc3ccccc3)ccc2O[C@@H]1CN(C)C(=O)Nc1cccc2ccccc12	active	inactive	inactive
CC(=O)NCCCC[C@@H]1NC(=O)[C@@H]2C[C@H](C(=O)NCCCCCN)[C@H](c3ccc(O)cc3)N2C1=O	inactive	inactive	inactive
C[C@@H]1CN([C@H](C)CO)C(=O)c2cccc(NC(=O)CCCCCC(=O)Nc3ccccc3N)c2O[C@H]1CN(C)C(=O)Nc1cccc2ccccc12	inactive	inactive	inactive
COc1ccc2c3c(n(c2c1)C)[C@@H](CO)N(C[C@]13CCN(CC1)C(=O)Nc1cccc(c1)F)C(=O)C1CCCCC1	inactive	inactive	inactive
CC(C)NC(=O)N(C)C[C@H]1Oc2cc(C#Cc3ccc(F)cc3)ccc2S(=O)(=O)N([C@H](C)CO)C[C@H]1C	inactive	inactive	inactive
C[C@@H]1CN([C@H](C)CO)S(=O)(=O)c2ccc(C#Cc3ccncc3)cc2O[C@@H]1CN(C)S(=O)(=O)c1ccc(F)cc1	inactive	active	inactive
COc1ccc(NC(=O)N(C)C[C@@H]2Oc3ccc(NC(=O)Cn4cnnn4)cc3CC(=O)N([C@H](C)CO)C[C@H]2C)cc1	inactive	inactive	inactive
C[C@@H]1CCCCO[C@@H](CN(C)C(=O)CCC(F)(F)F)[C@H](C)CN([C@H](C)CO)C(=O)c2cc(NS(=O)(=O)c3cccs3)ccc2O1	inactive	inactive	inactive
COc1ccc(S(=O)(=O)N(C)C[C@H]2OCCCC[C@@H](C)Oc3ccc(NS(=O)(=O)c4cn(C)cn4)cc3C(=O)N([C@H](C)CO)C[C@H]2C)cc1	inactive	active	inactive
Cc1ccc(S(=O)(=O)Nc2ccc3c(c2)C(=O)N([C@@H](C)CO)C[C@@H](C)[C@H](CN(C)Cc2ccc(C(=O)O)cc2)OCCCC[C@@H](C)O3)cc1	inactive	inactive	inactive
CS(=O)(=O)N1CCN2C[C@H](C(=O)O)CN(Cc3ccco3)C[C@@H]2C1	inactive	inactive	inactive
C[C@@H]1CN([C@@H](C)CO)C(=O)c2cc(NC(=O)Nc3ccc(F)cc3)ccc2O[C@@H](C)CCCCO[C@H]1CN(C)C(=O)c1ccccc1	inactive	inactive	inactive
CN(C)CC(=O)N[C@@H]1CC[C@@H](CCNS(=O)(=O)c2ccccc2)O[C@H]1CO	inactive	inactive	inactive
CC(C)NC(=O)N(C)C[C@@H]1OCCCC[C@@H](C)Oc2ccc(NS(C)(=O)=O)cc2C(=O)N([C@H](C)CO)C[C@H]1C	inactive	inactive	inactive
COc1ccc(S(=O)(=O)Nc2ccc3c(c2)CC(=O)N([C@H](C)CO)C[C@H](C)[C@@H](CN(C)Cc2ccc(Cl)c(Cl)c2)O3)cc1	inactive	inactive	inactive
NC1(C(=O)O)CC(C(=O)O)C1 (stereo not given)	inactive	inactive	inactive
COc1ccc(S(=O)(=O)Nc2cccc3c2O[C@@H](CN(C)S(=O)(=O)c2c(C)noc2C)[C@H](C)CN([C@H](C)CO)C3=O)cc1	inactive	inactive	inactive
COc1ccc([C@@H]([C@H](Cc2ccccc2)OC(C)=O)N2C[C@H](CC(=O)N(C)C)[C@@H]3C(=NO[C@H]3c3ccccc3)[C@@H]2Cc2ccccc2)cc1	inactive	inactive	inactive
Cc1noc(C)c1NC(=O)N(C)C[C@@H]1Oc2ncc(Br)cc2C(=O)N([C@@H](C)CO)C[C@@H]1C	inactive	inactive	inactive
C[C@@H]1CCCCO[C@H](CN(C)C(=O)c2ccncc2)[C@H](C)CN([C@@H](C)CO)C(=O)c2cc(NC(=O)C3CCCCC3)ccc2O1	inactive	inactive	inactive
Cc1noc(C)c1S(=O)(=O)N(C)C[C@H]1Oc2ccc(NS(=O)(=O)c3ccccc3)cc2CC(=O)N([C@H](C)CO)C[C@@H]1C	inactive	inactive	inactive
CCN1[C@@H]2Cn3c(ccc(-c4ccncc4)c3=O)[C@H]1[C@@H](C(=O)NCCc1cn(C)cn1)[C@@H]2CO	inactive	inactive	inactive
Nc1cnccn1	inactive	inactive	inactive
C[C@H]1CN([C@@H](C)CO)S(=O)(=O)c2ccc(C#Cc3ccccc3)cc2O[C@H]1CN(C)C(=O)c1ccccn1	inactive	inactive	inactive
C[C@H]1CCCCO[C@H](CN(C)C(=O)Nc2ccc3c(c2)OCO3)[C@@H](C)CN([C@@H](C)CO)C(=O)c2cc(NC(=O)Nc3cccc4ccccc34)ccc2O1	inactive	inactive	inactive

Structure (SMILES)	cytotoxicity call (HSkMC)	cytotoxicity call (HepG2)	growth inhibition call (S. aureus RN4220)
COc1ccc(S(=O)(=O)Nc2ccc3c(c2)C(=O)N([C@@H](C)CO)C[C@@H](C)[C@H](CN(C)Cc2ccc(Cl)c(Cl)c2)O3)cc1	inactive	active	inactive
C[C@@H]1CN([C@@H](C)CO)C(=O)c2cc(NC(=O)c3ccccc3)ccc2O[C@@H](C)CCCCO[C@@H]1CN(C)Cc1ccccc1	inactive	inactive	inactive
C[C@@H]1CN([C@@H](C)CO)C(=O)c2cccc(NC(=O)C3CCOCC3)c2O[C@H]1CN(C)Cc1ccncc1	inactive	inactive	inactive
Cc1noc(C)c1NC(=O)Nc1ccc2c(c1)CC(=O)N([C@H](C)CO)C[C@H](C)[C@H](CN(C)S(C)(=O)=O)O2	inactive	inactive	inactive
Cc1ccc(OC(=O)N(C)C[C@H]2OCc3ccccc3-c3ccccc3C(=O)N([C@@H](C)CO)C[C@@H]2C)cc1	inactive	inactive	inactive
C[C@@H]1CN([C@H](C)CO)C(=O)CCCn2cc(nn2)CO[C@@H]1CN(C)S(=O)(=O)c1ccc2c(c1)OCCCO2	inactive	inactive	inactive
CC(/C=C/C(=O)NO)=C\c1ccccc1OCc1cn(-c2ccc(C[C@H]3C(=O)O[C@@H](Cc4ccccc4)[C@H]4[C@@H]5C=CCCC=C5CN43)cc2)nn1	inactive	inactive	inactive
COCC#Cc1ccc2c(c1)O[C@@H](CN(C)S(=O)(=O)c1cccc(OC)c1)[C@H](C)CN([C@@H](C)CO)S2(=O)=O	inactive	inactive	inactive
C[C@@H]1CN([C@@H](C)CO)C(=O)Cc2cc(NC(=O)Cc3ccccc3)ccc2O[C@H]1CN(C)S(C)(=O)=O	inactive	inactive	inactive
C[C@@H]1CN([C@@H](C)CO)S(=O)(=O)c2ccc(C#Cc3ccc(F)cc3)cc2O[C@H]1CN(C)S(C)(=O)=O	inactive	inactive	inactive
CO[C@H]1C[C@H](O[C@H]2[C@H](C)O[C@@H](O[C@@H]3/C(C)=C/C[C@@H]4C[C@@H](C[C@]5(C=C[C@H](C)[C@@H](C6CCCCC6)O5)O4)OC(=O)[C@@H]4C=C(C)[C@@H](O)[C@H]5OC/C(=C\C=C\[C@@H]3C)[C@]54O)C[C@@H]2OC)O[C@@H](C)[C@@H]1O	inactive	inactive	inactive
Cc1noc(C)c1NC(=O)N(C)C[C@H]1Oc2ccc(NC(=O)Nc3cccc4ccccc34)cc2CC(=O)N([C@H](C)CO)C[C@@H]1C	inactive	inactive	inactive
C[C@@H]1CCCCO[C@H](CN(C)C(=O)Nc2ccc(C(F)(F)F)cc2)[C@H](C)CN([C@@H](C)CO)C(=O)c2cc(NC(=O)Nc3ccc(C(F)(F)F)cc3)ccc2O1	inactive	inactive	inactive
C[C@@H]1CCCCO[C@@H](CN(C)Cc2ccccc2)[C@H](C)CN([C@H](C)CO)C(=O)c2cc(NS(=O)(=O)c3ccccc3)ccc2O1	inactive	inactive	inactive
COc1ccc(CN(C)C[C@@H]2OCCCC[C@H](C)Oc3ccc(NS(=O)(=O)c4ccc(Cl)cc4)cc3C(=O)N([C@H](C)CO)C[C@@H]2C)cc1	inactive	active	inactive
COc1ccc(S(=O)(=O)N(C)C[C@H]2OCCCC[C@@H](C)Oc3ccc(NS(=O)(=O)c4cn(C)cn4)cc3C(=O)N([C@@H](C)CO)C[C@H]2C)cc1	inactive	inactive	inactive
C[C@@H]1CN([C@H](C)CO)C(=O)c2cccc(NS(=O)(=O)c3ccc(Cl)cc3)c2O[C@@H]1CN(C)Cc1ccc(Cl)c(Cl)c1	inactive	inactive	inactive
O=c1[nH]cc(N2CCCCC2)c(=O)[nH]1	inactive	inactive	inactive
C[C@H](CO)N1C[C@H](C)[C@H](CN(C)S(=O)(=O)c2cn(C)cn2)OCCCC[C@H](C)Oc2ccc(NC(=O)Nc3ccc(C(F)(F)F)cc3)cc2C1=O	inactive	inactive	inactive
C[C@H]1O[C@@H](O[C@H]2[C@@H](O)[C@@H](O)[C@@H](O[C@H]3CC[C@]4(C)[C@H]5CC=C6[C@H]7CC(C)(C)[C@H]8C[C@]7(C(=O)O8)[C@@H](O)C[C@]6(C)[C@@]5(C)CC[C@H]4C3(C)C)O[C@@H]2CO)[C@@H](O)[C@@H](O[C@H]2OC[C@@H](O)[C@@H](O)[C@@H]2O)[C@@H]1O	inactive	inactive	inactive
COc1ccc(NC(=O)Nc2ccc3c(c2)C(=O)N([C@@H](C)CO)C[C@H](C)[C@H](CN(C)C(=O)Nc2ccc4c(c2)OCO4)OCCCC[C@H](C)O3)cc1	inactive	inactive	inactive
CC(C)CC#Cc1ccc2c(c1)O[C@H](CN(C)C(=O)c1ccncc1)[C@H](C)CN([C@@H](C)CO)S2(=O)=O	inactive	inactive	inactive
Cc1onc(-c2ccccc2)c1C(=O)NC1C(=O)N2C1SC(C)(C)C2C(=O)[O-].[Na+] (stereo not given)	inactive	inactive	active
COc1ccc(NC(=O)N(C)C[C@@H]2Oc3c(NS(=O)(=O)c4cn(C)cn4)cccc3C(=O)N([C@H](C)CO)C[C@@H]2C)cc1	inactive	inactive	inactive
COc1ccccc1-c1ccc2c(c1)O[C@@H](CN(C)S(=O)(=O)c1ccccc1)[C@H](C)CN([C@H](C)CO)S2(=O)=O	inactive	inactive	inactive
